Results as given in article PMC4336329 (PLoS ONE, 2015).
Out of some 310,000 compounds screened, about 14,000 (4.5%) showed an effect of 50% or more. The effect is printed as a negative number. The list shows a part of the results.

Molecular target: human ether-à-go-go-related gene (hERG) potassium channel (human, UniProt Q12809)
Test: primary screen, population patch clamp on CHO cells stably expressing hERG
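Further: peak tail current of the secondary pulse compared with the same well before compound.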

Sequence of human ether-à-go-go-related gene (hERG) potassium channel (Q12809 whole entry, looked up): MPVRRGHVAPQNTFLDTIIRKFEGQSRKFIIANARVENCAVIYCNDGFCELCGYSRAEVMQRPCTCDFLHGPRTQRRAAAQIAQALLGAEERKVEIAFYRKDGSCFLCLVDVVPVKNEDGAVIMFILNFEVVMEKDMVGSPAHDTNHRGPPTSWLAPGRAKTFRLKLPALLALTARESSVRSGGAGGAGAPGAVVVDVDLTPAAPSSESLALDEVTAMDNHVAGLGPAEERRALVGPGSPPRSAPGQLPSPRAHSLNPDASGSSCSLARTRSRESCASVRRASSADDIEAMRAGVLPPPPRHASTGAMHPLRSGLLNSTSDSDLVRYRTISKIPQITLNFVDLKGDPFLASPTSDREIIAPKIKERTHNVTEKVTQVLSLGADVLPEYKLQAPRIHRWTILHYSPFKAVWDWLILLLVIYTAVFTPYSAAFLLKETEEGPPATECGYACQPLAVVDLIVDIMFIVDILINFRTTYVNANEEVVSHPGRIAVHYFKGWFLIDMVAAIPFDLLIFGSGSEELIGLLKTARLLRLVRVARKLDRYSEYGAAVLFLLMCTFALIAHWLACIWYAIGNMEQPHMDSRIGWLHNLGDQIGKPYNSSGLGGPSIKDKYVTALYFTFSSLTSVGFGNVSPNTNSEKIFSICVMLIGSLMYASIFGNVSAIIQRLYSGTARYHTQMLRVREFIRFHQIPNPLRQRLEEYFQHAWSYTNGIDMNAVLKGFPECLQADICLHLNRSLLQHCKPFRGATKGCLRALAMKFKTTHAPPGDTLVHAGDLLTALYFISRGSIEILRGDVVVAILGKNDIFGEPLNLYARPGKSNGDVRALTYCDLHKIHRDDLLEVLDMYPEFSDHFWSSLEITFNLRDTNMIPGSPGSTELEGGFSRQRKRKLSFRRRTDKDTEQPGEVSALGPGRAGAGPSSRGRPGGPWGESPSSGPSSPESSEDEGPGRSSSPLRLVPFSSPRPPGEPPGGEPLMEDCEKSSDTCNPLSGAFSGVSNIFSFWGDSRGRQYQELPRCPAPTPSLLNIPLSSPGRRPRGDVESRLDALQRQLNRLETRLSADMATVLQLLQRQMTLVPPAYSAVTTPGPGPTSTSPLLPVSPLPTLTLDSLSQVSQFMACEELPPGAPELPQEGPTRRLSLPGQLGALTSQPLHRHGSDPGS

SMILES	hERG current change (%, negative = inhibition) at 10uM
CCCNC(=O)COc1ccc(S(=O)(=O)Nc2ccc(C)cc2)cc1	-20.2%
O=C1C2CCCN2C(=S)N1c1ccccc1 (stereo not shown)	2.74%
N#Cc1ccsc1NC(=O)COc1ccc(-c2nnco2)cc1	1.95%
COc1ccc(C(CNC(=O)c2cccc(S(=O)(=O)N3CCCC3)c2)N2CCCC2)cc1 (stereo not shown)	-22.9%
CC(=O)Oc1ccc(/C=N/NC(=O)CCSc2ccccc2)cc1	-8.83%
Cc1cc(NC(=O)CSc2nc3c(c(=O)n2Cc2ccccc2)SC(C)C3)no1 (stereo not shown)	10.8%
NC(=O)CC(NC(=O)Cc1cccc2ccccc12)c1ccc(NCCc2ccccc2F)c([N+](=O)[O-])c1 (stereo not shown)	10.1%
COc1cc(NC(=O)CCS(=O)(=O)c2ccc3c(c2)oc(=O)n3C)cc(OC)c1OC	19.8%
O=[N+]([O-])c1cccnc1Sc1ccc(Cl)cc1	-11%
CCOC(=O)CN1C(=O)S/C(=C\c2ccc(-c3ccc(C(=O)O)c(Cl)c3)o2)C1=O	4%
COc1cc(CN2CCCC(N3CCc4ccccc4C3)C2)c(Cl)cc1O (stereo not shown)	-48.6%
O=c1cc(CO)oc(C(Nc2ccccn2)c2ccccc2Cl)c1O (stereo not shown)	-0.246%
O=C(CN1C(=O)CC(c2ccccc2)=Nc2ccccc21)NCc1ccco1	-3.96%
CCc1ccc(S(=O)(=O)N2CC(=O)Nc3ccccc32)cc1	-22.9%
COc1ccccc1N1CCN(S(=O)(=O)CCNC(=O)C23CC4CC(CC(C4)C2)C3)CC1	-14.2%
COc1cc(NC(=S)NC(=O)CC(C)C)ccc1NC(=O)c1cc2ccccc2o1	19.7%
NC(=O)NCCCC(=O)OCC(=O)c1ccc2ccccc2c1	13.4%
COCc1cc(C)nc2sc(C(=O)OC)c(N)c12	4.96%
Nc1ccccc1Sc1ccccc1[N+](=O)[O-]	-15.4%
CNC(=O)c1c(NC(=O)CCS(=O)(=O)c2ccc(C)cc2)sc(C)c1C	-5.82%
O=C(CN1C(=O)/C(=C/c2ccccc2F)Oc2ccccc21)N1CCN(c2ccccn2)CC1	7.12%
N#Cc1ccsc1NC(=O)CN1CCN(c2ccccn2)CC1	-36.1%

SMILES	hERG current change (%, negative = inhibition) at 10uM
O=C(O)CCCC[C@@H]1SC[C@@H]2NC(=O)N[C@@H]21	1.92%
Cc1ccc(N2C(=O)[C@@H]3[C@H](C2=O)[C@H]2C=CC=NN2[C@@H]3C(=O)Nc2ccc(Cl)cc2)cc1	-21.4%
CC1CCCC(C)N1c1nnc(N)s1 (stereo not shown)	10.1%
COc1ccc2nc3sc(C(=O)N4CCN(C)CC4)cc3cc2c1	-33.5%
O=C1N[C@H](Cc2ccccc2)CO1	10.5%
O=C(Nc1ccc2c(c1)OCCO2)c1cnn(-c2ccccc2)n1	-6.02%
CC(=O)Nc1ccc(NC(=S)NC(=O)C2CCCC2)cc1	-6.01%
COc1ccc(-n2cccc2/C=C2/NC(=O)N(c3cccc(Cl)c3)C2=O)cc1	5.24%
Cc1ccccc1-c1nnc(-c2ccccc2C)o1	2.05%
Cc1cccc(NCC(=O)N/N=C\c2ccc[nH]2)c1	16.8%
CCOc1ccc(NC(=O)Cn2cncc2-c2ccc([N+](=O)[O-])cc2)cc1	-1.87%
CCN1CCN(CC(=O)c2c(C)n(Cc3ccccc3)c3ccc(OC)cc23)CC1	-41.3%
CCc1nc2sccc2c(=O)[nH]1	15.4%
CC(/C=C/c1ccccc1)=N\NC(=S)NC(C)C	-2.54%
Cc1cccc(NC(=O)c2sc(NC(=O)c3ccco3)c(C#N)c2C)c1C	5.79%
COc1ccccc1C(=O)NC(=S)Nc1ccc(N2CCN(C(=O)c3ccco3)CC2)cc1	-5.07%
CC12CCC(=O)N1C(C(=O)OCC(=O)Nc1ccc(S(N)(=O)=O)cc1)CS2 (stereo not shown)	8.56%
CCN(CC)S(=O)(=O)c1ccc(Cl)c(NC(=O)COC(=O)c2cccn2C)c1	8.63%
COC(=O)c1cnc(SCc2ccc(Cl)cc2)n1C	-21.5%
COc1ccc(O)c(C2=Nc3ccccc3N=C(c3cccs3)C2)c1	17.1%
CCn1c(=O)n(CC)c2cc(S(=O)(=O)N3CCC(c4ccccc4)CC3)ccc21	-4.56%
